Source: the supplement of paper PMC4967469
IC50 is the fitted dose that halves viability relative to control wells, and lower means more sensitive; a limit (>, <) means that the fit lies beyond the doses tested. AUC is the area under the same curve over the 256-fold range up to the top dose, as a fraction; values near 1 show little effect. For part of these data: The top dose, if marked as inferred, was derived from the fitted curves, not read from the paper. For part of these data: Where an entry number is given, a second screen of the drug exists; the two often differ.

Experiments:
Test in all cases: Viability of human cancer cell lines after 72 h of drug (GDSC screen)
[1] = compound: C/C=C(/C)C(=O)O[C@H]1C(C)=C2[C@H]([C@@H]1OC(=O)CCCCCCC)[C@@](C)(OC(C)=O)C[C@H](OC(=O)CCC)[C@@]1(O)[C@H]2OC(=O)[C@@]1(C)O [Thapsigargin]; details: top dose 0.512 µM; top dose inferred
Protocol: (§1)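 Human cancer cell lines in 384-well plates, medium with 10% serum, drug for 72 h over a 256-fold dose range (nine 2-fold or five 4-fold steps up to the top dose). Adherent lines were fixed and stained with the nucleic acid dye Syto60, suspension lines read with resazurin; signal relative to control wells, capped at 0 and 100%. One two-parameter sigmoid per drug and line, fitted in a mixed model over all curves with the slope shared within a line.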

[2] = compound: C=CC(=O)Nc1cc(-n2c(=O)ccc3cnc4ccc(-c5cn[nH]c5)cc4c32)ccc1C [QL-X-138]; details: top dose 10.24 µM; top dose inferred
Protocol: as §1

[3] = compound: CCn1c(-c2nonc2N)nc2cnc(Oc3cccc(NC(=O)c4ccc(OCCN5CCOCC5)cc4)c3)cc21 [GSK269962A]; details: top dose inferred
Protocol: as §1

[4] = compound: COc1cc(N2CCC(O)CC2)ccc1Nc1cc(Nc2ccccc2S(=O)(=O)C(C)C)c2cc[nH]c2n1 [MPS-1-IN-1]; details: top dose 20 µM; top dose inferred
Protocol: as §1

[5] = compound: COc1cc(O)c2c(c1)/C=C/C[C@H](O)[C@H](O)C(=O)/C=C\C[C@H](C)OC2=O [(5Z)-7-Oxozeaenol]; details: top dose 10 µM; top dose inferred
Protocol: as §1

[6] = compound: COc1cc2ncnc(-n3nc(-c4ccccn4)nc3N)c2cc1OC [CP466722]; details: top dose 16 µM; top dose inferred
Protocol: as §1

[7] = compound: COc1nc(C)cnc1NS(=O)(=O)c1cccnc1-c1ccc(-c2nnco2)cc1 [Zibotentan]; details: top dose 20 µM; top dose inferred
Protocol: as §1

[8] = compound: C[C@]1(c2nc3c(C(N)=O)cccc3[nH]2)CCCN1 [ABT-888]; details: top dose 5 µM; top dose inferred
Protocol: as §1

[9] = compound: Cc1ccc(-c2c(C(=O)CCl)n(CCCO)c3ncnc(N)c23)cc1 [CMK]; details: top dose 4 µM; top dose inferred
Protocol: as §1

[10] = compound: Cc1ccc(F)c(NC(=O)Nc2ccc(-c3cccc4[nH]nc(N)c34)cc2)c1 [ABT-869]; details: top dose 1.024 µM; top dose inferred
Protocol: as §1

[11] = compound: Cc1cnc(-c2cnc(NCCNc3ccc(C#N)cn3)nc2-c2ccc(Cl)cc2Cl)[nH]1 [CHIR-99021]
Protocol: as §1

[12] = compound: O=c1cc(-c2cccc3c2Sc2ccccc2S3)oc(N2CCOCC2)c1 [KU-55933]; details: top dose 10 µM
Protocol: as §1

[13] = top dose 2.5 µM, screen: GDSC drug entry 127
[14] = top dose 5 µM, screen: GDSC drug entry 1192
[15] = top dose 2.56 µM, screen: GDSC drug entry 154
[16] = top dose 10 µM, screen: GDSC drug entry 1241, top dose inferred

Cell Line | AUC [1] | IC50 [1] | AUC [2] | IC50 [2] | AUC [3, 13] | IC50 [3, 13] | AUC [3, 14] | IC50 [3, 14] | AUC [4] | IC50 [4] | AUC [5] | IC50 [5] | AUC [6] | IC50 [6] | AUC [7] | IC50 [7] | AUC [8] | IC50 [8] | AUC [9] | IC50 [9] | AUC [10] | IC50 [10] | AUC [11, 15] | IC50 [11, 15] | AUC [11, 16] | IC50 [11, 16] | AUC [12] | IC50 [12]
OCI-AML2 (acute myeloid leukaemia, suspension) | 0.308 | 0.0109 µM | 0.705 | 2.04 µM | 0.953 | > 2.5 µM | 0.942 | > 5 µM | 0.78 | 6.18 µM | 0.04 | < 0.0391 µM | 0.682 | 2.79 µM | 0.994 | > 20 µM | 0.994 | > 5 µM | 0.92 | 3.34 µM | 0.992 | > 1.02 µM | 0.989 | > 2.56 µM | 0.994 | > 10 µM | 0.984 | > 10 µM
OCI-AML3 (acute myeloid leukaemia, suspension) | 0.737 | 0.134 µM | 0.497 | 0.631 µM | 0.978 | > 2.5 µM | 0.788 | 1.86 µM | 0.869 | 14.1 µM | 0.322 | 0.216 µM | 0.843 | 9.08 µM | 0.989 | > 20 µM | 0.98 | > 5 µM | 0.991 | > 4 µM | 0.991 | > 1.02 µM | 0.991 | > 2.56 µM | 0.99 | > 10 µM | 0.987 | > 10 µM
OCI-M1 (acute myeloid leukaemia, suspension) | 0.482 | 0.0289 µM | 0.388 | 0.34 µM | 0.782 | 0.797 µM | 0.969 | > 5 µM | 0.954 | > 20 µM | 0.836 | 4.55 µM | 0.801 | 5.76 µM | 0.993 | > 20 µM | 0.994 | > 5 µM | 0.931 | 4 µM | 0.995 | > 1.02 µM | 0.993 | > 2.56 µM | 0.889 | 6.76 µM | 0.993 | > 10 µM
OVCAR-4 (ovary, adherent) | 0.201 | 0.00256 µM | 0.798 | 7.98 µM | 0.898 | > 2.5 µM | 0.896 | > 5 µM | 0.928 | > 20 µM | 0.675 | 2.45 µM | 0.779 | 10.2 µM | 0.975 | > 20 µM | 0.962 | > 5 µM | 0.812 | 3.63 µM | 0.96 | > 1.02 µM | 0.947 | > 2.56 µM | 0.931 | > 10 µM | 0.925 | > 10 µM
PSN1 (pancreas, adherent) | 0.092 | < 0.002 µM | 0.791 | 3.81 µM | 0.936 | > 2.5 µM | 0.933 | > 5 µM | 0.767 | 6.33 µM | 0.208 | 0.104 µM | 0.702 | 3.32 µM | 0.99 | > 20 µM | 0.99 | > 5 µM | 0.813 | 1.75 µM | 0.986 | > 1.02 µM | 0.99 | > 2.56 µM | 0.96 | > 10 µM | 0.949 | > 10 µM
RH-1 (rhabdomyosarcoma, adherent) | 0.302 | 0.00991 µM | 0.683 | 1.88 µM | 0.98 | > 2.5 µM | 0.955 | > 5 µM | 0.65 | 3.01 µM | 0.745 | 2.71 µM | 0.698 | 3.22 µM | 0.991 | > 20 µM | 0.992 | > 5 µM | 0.992 | > 4 µM | 0.991 | > 1.02 µM | 0.992 | > 2.56 µM | 0.975 | > 10 µM | 0.972 | > 10 µM
RPMI-8402 (T-cell lymphoblastic leukaemia, suspension) | 0.22 | 0.00581 µM | 0.499 | 0.635 µM | 0.881 | 1.89 µM | 0.826 | 2.41 µM | 0.803 | 8.08 µM | 0.533 | 0.755 µM | 0.455 | 0.771 µM | 0.988 | > 20 µM | 0.991 | > 5 µM | 0.818 | 1.81 µM | 0.986 | > 1.02 µM | 0.991 | > 2.56 µM | 0.978 | > 10 µM | 0.946 | > 10 µM
SF126 (glioma, adherent) | 0.491 | 0.0303 µM | 0.756 | 3.68 µM | 0.89 | > 2.5 µM | 0.907 | > 5 µM | 0.964 | > 20 µM | 0.62 | 1.36 µM | 0.82 | 9.86 µM | 0.985 | > 20 µM | 0.984 | > 5 µM | 0.928 | > 4 µM | 0.986 | > 1.02 µM | 0.983 | > 2.56 µM | 0.901 | > 10 µM | 0.971 | > 10 µM
SF268 (glioma, adherent) | 0.157 | 0.00252 µM | 0.683 | 2.18 µM | 0.852 | 2.17 µM | 0.832 | 3.55 µM | 0.86 | 18.8 µM | 0.717 | 2.72 µM | 0.895 | > 16 µM | 0.97 | > 20 µM | 0.983 | > 5 µM | 0.964 | > 4 µM | 0.978 | > 1.02 µM | 0.983 | > 2.56 µM | 0.917 | > 10 µM | 0.972 | > 10 µM
